This is an account of results in PubChem BioAssay AID1508624 (National Center for Advancing Translational Sciences (NCATS), 2021).

The campaign covered roughly 48,000 compounds. About 120 (0.25%) were called active. Roughly 4% stayed inconclusive and do not appear here. Calls follow the shape of the dose curve; as a rule, active = well fitted activation curve with a large enough effect; inconclusive = small, poorly fitted or top-dose-only effect, or another doubt; inactive = no such curve, though single readings can be large or run the other way. This is one part of the list.

This assay in a line: Primary qHTS for Identification of Small Molecule Activators of Huntingtin-Antisense Promoter Activity. Also: nearly all actives have a fitted effect of over 55% in size. Conditions: HEK293 HTT-AS promoter firefly luciferase reporter (activity 0% = vehicle and -100% = no light), 24 h; series mostly up to 57.5 µM; activity change, positive = activation: at the top concentration. The text has this: Assay Provider: Russell L. Margolis M.D.
Department Neurology, Johns Hopkins University School of Medicine, Baltimore, MD
Huntington's Disease (HD) is a neurodegenerative disorder caused by a CAG repeat expansion in exon 1 of huntingtin (HTT). While there are currently no disease-modifying treatments for HD, recent efforts have focused on development of nucleotide-based therapeutics to lower HTT expression. As an alternative to siRNA or oligonucleotide methods, we hypothesized that suppression of HTT expression might be accomplished by small molecules that either (1) directly decrease HTT expression by suppressing HTT promoter activity or (2) indirectly decrease HTT expression by increasing the promoter activity of HTT-AS, the gene antisense to HTT that appears to inhibit expression of HTT.
We developed and employed a high throughput screen for modifiers of HTT and HTT-AS promoter activity using luminescent reporter HEK293 cells; of the 52,041 compounds tested, we identified 898 replicable hits. We used a rigorous stepwise approach to assess compound toxicity and the capacity of the compounds to specifically lower huntingtin protein in 5 different cell lines, including HEK293 cells, HD lymphoblastoid cells, mouse primary neurons, HD iPSCs differentiated into cortical-like neurons, and HD hESCs. We found no compounds which were able to lower huntingtin without lowering cell viability in all assays, though the potential efficacy of a few compounds at non-toxic doses could not be excluded.
SEQUENCE No. (1, 2, 3, etc.); […] (e.g., Cells, Incubation, Reagent, etc.); VALUE and DESCRIPTION.
1; Reagent; 4 uL; 2,500 Hek293 luciferase reporter cells per wells
3; Compound; 23 nL; Control inhibitor / compound library
5; Reagent; 2.5 uL; Firefly Luc reagent; Dual-Glo Luciferase Reporter Assay System (Promega)
6; Time; 10 min; room temperature incubation
7; Detection; Luminescence; FLuc
NOTES (numbers refer to sequence above)
1; High-throughput screening, measuring luminescence from a Hek293 luciferase reporter, was performed in 1,536 well white-walled tissue-culture treated plates. 2,500 cells were plated in 4 µL of Opti-MEM per well using a Multidrop Combi Reagent Dispenser (ThermoFisher).
2; Assay plates were cultured for 24 hours.
3; Control inhibitor (PTC124; final concentration of 50 uM) and compound library (at final concentrations of 460 nM - 57.5 uM) were added to the assay plate using the Kalypsis Pintool Robotic System equipped with 1536 pinheads.
4; Cells were then incubated for 24 hours at 37 degrees C prior to luminescence measurements.
5; In all cases, luminescence was measured using the Dual-Glo Luciferase Reporter Assay System (Promega) following the manufacturer's instructions.
6; Room temperature incubation.
7; Luminescence signal was obtained using the PerkinElmer ViewLux plate reader. Results were normalized to vehicle control (0% activity) and zero RLU (-100% activity).
On the technique in general: Quantitative high-throughput screening tests each substance at several concentrations.
For the compound `CCc1ccc(NC(=O)c2cc(C)nn2-c2ccccc2)cc1`, the “activity change, positive = activation” value was inactive: -9.6%. In the case of `Cc1cc(=O)n(CC(=O)NC(C)c2ccccc2)c2c1c(C)nn2C` (configuration not stated), the “activity change, positive = activation” value was inactive: -15.4%. Consider `CCOC(=O)c1c(NC(=O)c2cc3ccccc3c(=O)o2)sc2c1CCC(C(C)(C)C)C2` (configuration not stated), for which the “activity change, positive = activation” value is inactive: 3.75%. For `O=c1c2ccccc2nc(N2CCN(c3cccc(Cl)c3)CC2)n1-c1ccccc1` the value was inactive: -31.4%; for `CCN(CC)CCCNC(=O)c1nn(-c2ccc(OC)cc2)c(=O)c2c1c1ccccc1n2C`, inactive: -8.13%; for `CCC(C(=O)N1CCN(c2ccc(OC)cc2)CC1)n1nc(C)n2c(cc3occc32)c1=O` (configuration not stated), inactive: -45.5%. Regarding `Nc1ccc(S(=O)(=O)NC2(C(F)(F)F)NC(=O)N(c3cccc(Cl)c3)C2=O)cc1` (configuration not stated), the “activity change, positive = activation” value is inactive: -3.89%. Take `COC(=O)c1cccc(CN2C(=O)SC(Nc3ccc(Cl)cc3)C2=O)c1` (configuration not stated): the “activity change, positive = activation” value was inactive: -19.9%. For the compound `COc1ccc(Nc2c3c(nc4nncn24)CCC3)cc1Cl`, the “activity change, positive = activation” value was inactive: -39.6%. Regarding `CCOC(=O)c1noc2ncnc(Nc3cccc(C(F)(F)F)c3)c12`, the “activity change, positive = activation” value was inactive: 6.62%. The result for `O=C(Nc1ccccc1C(F)(F)F)N1CCC2(CC1)Oc1ccccc1C(=O)N2Cc1ccccc1F` reads inactive: -32.6%; that for `CCCCOc1ccc(C(=O)Nc2nc3c(s2)CC(C)CC3)cc1` (configuration not stated), inactive: -13.4%. Consider `CC(=O)Nc1ccc(NC(=O)CCc2c(C)nc3c(c(C)nn3-c3ccccc3)c2C)cc1`, for which the “activity change, positive = activation” value is inactive: -2.67%.

In the case of `COCCNC(=O)c1ccc2c(c1)N(Cc1c(F)cccc1Cl)C(=O)c1ccccc1S2`, the “activity change, positive = activation” value is inactive: -21%. For the compound `CCOC(=O)c1c(C)oc2nc(C)nc(NCc3ccc(OC)cc3)c12`, the “activity change, positive = activation” value was inactive: -6.35%. Turning to `Cc1nnc(NCc2ccc(F)cc2)c2c1nnn2Cc1ccccc1Cl`, the “activity change, positive = activation” value was inactive: -1.78%. With `CCOc1ccc(NC(=O)CCn2nc(C)c(S(=O)(=O)N3CCCCC3)c2C)cc1`, the “activity change, positive = activation” value was inactive: -14.7%. `COc1ccccc1N1CCN(S(=O)(=O)c2c(C)sc3ncn(CC(=O)NCCN(C)C)c(=O)c23)CC1`: the “activity change, positive = activation” value was inactive: 7.04%. On to `COc1ccc(OC)c(NC(=O)CSC2=Nc3ccccc3C3=NC(CCC(=O)NCCc4ccccc4)C(=O)N23)c1` (configuration not stated), for which the “activity change, positive = activation” value is inactive: -21.8%. In the case of `CCc1ccc(N2C(=O)N(CC(=O)C(C)(C)C)c3ccccc3S2(=O)=O)cc1`, the “activity change, positive = activation” value was inactive: -19.2%.

As to `O=C(NCCC1=CCCCC1)c1ccc2c(c1)N(Cc1ccc(Cl)cc1)C(=O)c1ccccc1S2(=O)=O`, the “activity change, positive = activation” value is inactive: -5.89%. On to `Cc1c(Cl)cccc1NC(=O)Cn1cnc(S(=O)(=O)N2CCCC2)c1`, for which the “activity change, positive = activation” value was inactive: -6.95%. Regarding `COc1ccc(CCNC(=O)Cn2nc(C)c3c(C)n(-c4ccc(C)cc4)nc3c2=O)c(OC)c1`, the “activity change, positive = activation” value was inactive: -68.2%. For the compound `COc1ccc(NC(=O)CC2C(=O)N(c3ccc(C)cc3)C(=O)N2Cc2ccc(C)cc2)cc1` (configuration not stated), the “activity change, positive = activation” value is inactive: 14%.

Regarding `CCOc1ccc(CCNC(=O)C2CCN(Cc3nc(-c4ccccc4C)oc3C)CC2)cc1OCC`, the “activity change, positive = activation” value is inactive: -11.9%. Consider `O=C(CC(NCc1cccnc1)C(=O)O)Nc1ccc(O)cc1` (configuration not stated), for which the “activity change, positive = activation” value was inactive: -16.6%. Consider `CCN(C(=O)CSc1nc2ccccc2n1CC(=O)N1CCCC(C)C1)c1ccccc1` (configuration not stated), for which the “activity change, positive = activation” value was inactive: -23.8%. Take `Fc1ccc(Nc2c(-c3ccco3)nc3ccccn23)cc1`: the “activity change, positive = activation” value is inactive: -18.9%. With `COc1ccc(C=CC(=O)Nc2ccccc2C(=O)O)cc1OC`, the “activity change, positive = activation” value was inactive: -85%. As for `Cn1c(=O)c(=O)n(C)c2cc(S(=O)(=O)Nc3ccc(Cl)c(C(F)(F)F)c3)ccc21`, the “activity change, positive = activation” value was inactive: -20.9%. The result for `Cc1ccc(C2c3[nH]c4ccccc4c3CCN2C(=O)CCc2ccccc2)cc1` (configuration not stated) reads inactive: -39.1%; that for `CC(C)(C)c1ccc(C(=O)N2CCN(Cc3cc(=O)n4nc(-c5ccccc5F)sc4n3)CC2)cc1`, inactive: -0.0911%; that for `Cc1ccc(NC(=O)C2CCC(CNS(=O)(=O)c3ccc4c(c3)C(C)(C)C(=O)N4C)CC2)cc1` (configuration not stated), inactive: -26.9%.

Consider `CCOc1ccc(CNC(=O)Cc2ccc(NC(=O)N3CCCCc4ccccc43)cc2)cc1OC`, for which the “activity change, positive = activation” value was inactive: -8.44%. Consider `COc1cc(OC)c(NC(=O)Cn2cnc3nc4c(cc3c2=O)CCCC4)cc1Cl`, for which the “activity change, positive = activation” value is inactive: -7.77%. Turning to `Cc1cc(=O)oc2cc(OCC(=O)Nc3c(C(C)C)cccc3C(C)C)ccc12`, the “activity change, positive = activation” value is inactive: -16.6%.

Consider `Clc1ccc(-c2nnn3c2nc(NCc2ccc4c(c2)OCO4)c2ccccc23)cc1`, for which the “activity change, positive = activation” value was inactive: -0.526%. For `Cc1cnc2c(c1SCC(=O)NCc1ccccc1Cl)c(=O)n(C)c(=O)n2C` the value was inactive: -4.82%; for `CC(C)(Oc1ccc(Cl)cc1)C(=O)Nc1nnc2n1CCS2`, inactive: -21.3%.

With `CCCCNC(=O)CC1N=C2c3ccccc3N=C(SCC(=O)NCc3ccccc3Cl)N2C1=O` (configuration not stated), the “activity change, positive = activation” value is inactive: -13.5%. In the case of `COc1cccc(C(=O)Nc2cccc(OCc3cc(=O)n4cccc(C)c4n3)c2)c1`, the “activity change, positive = activation” value is inactive: -8.95%. Turning to `Cc1ccc(NC(=O)CCC(=O)N2CCSc3ccccc32)cc1`, the “activity change, positive = activation” value is inactive: -3.02%. `O=C(COc1ccccc1)Nc1nnc(SCc2cc(=O)c3ccccc3[nH]2)s1`: the “activity change, positive = activation” value is inactive: -37.1%. On to `Clc1ccc(-c2noc(-c3cccnc3N3CCN(c4ccccc4)CC3)n2)cc1`, for which the “activity change, positive = activation” value was inactive: -1.94%. Consider `CCc1ccccc1Nc1cc(C(=O)NCCCN(C)C2CCCCC2)c2ccccc2n1`, for which the “activity change, positive = activation” value is inactive: -26.4%. Take `CCOc1ccc(NC(=O)Cn2cc(C(=O)c3ccccc3)c(=O)c3cc4c(cc32)OCCO4)cc1`: the “activity change, positive = activation” value is inactive: -34.1%. Take `Cc1ccc(C)c(N2CCN(C(=O)c3nn(C)c4c3CS(=O)(=O)c3ccccc3-4)CC2)c1`: the “activity change, positive = activation” value is inactive: -34.1%.
